# The list shows a part of the results.
# B1: ENSG00000107863:be:win_3101|CDS|ENSG00000107863|bound_else_gene|NA|bound_elsewhere_windowed (ssRNA)
# RNA: GGGAGUUCUACAGUCCGACGAUCCGAUCCAGGAGAGCAGCAACCUAAACGAAGAGGACACUGGAGUCACUAACAGGGAUCUAAUUAGUCGAAGAAUAAAAGAAUACAACAAUCUGAUGAGCAAAGCAGAACAGUUGCCAAAAACAACAGAGGAUUGAGCAUCA
# B2: chrX:119243474:119243703:+|3pUTR|ENSG00000101856|msi1|total|mutant (ssRNA)
# RNA: GGGAGUUCUACAGUCCGACGAUCGGUAUUUCCCAAAACAGGUAAAAAUCUUAAAUGUGCACCAAGAGCAAAGGAUCAACUUUCCGUCAUGAUGUUCUGUAAAGACAACAAAUCCCUUUUUUUUUCUCAAUUGACUUAACUGCACAACAGAGGAUUGAGCAUCA
# B3: chr17:47658542:47658643:+|CDS|ENSG00000108424|unk|FALSE|unique (ssRNA)
# RNA: GGGAGUUCUACAGUCCGACGAUCGAUUCUGACUGCCAUAAUCCAGGGGAUGAGGAAAGAAGAGCCUAGUAAUAAUGUGAAGCUAGCUGCUACGAAUGCACUCCUGAACUCAUUGGAGUUCACCAAAGCAAACUUUGAUAAAGACAACAGAGGAUUGAGCAUCA
# B4: ENSG00000070961:be:win_3651|CDS_3pUTR|ENSG00000070961|bound_else_gene|NA|bound_elsewhere_windowed (ssRNA)
# RNA: GGGAGUUCUACAGUCCGACGAUCAACAUCACUCUGAUUGUAAGCUGAAUGUUAACACACUAGCUGCAUUGUAAAGAAACAAAUUGAAACUGGGUCUUUUCACAUAUUGUGAUGGACAAGCUAGUAUUCUUGUCUUUGGACUUCCAACAGAGGAUUGAGCAUCA
# B5: chr4:125449804:125449905:+|CDS|ENSG00000196159|msi1|FALSE|unique (ssRNA)
# RNA: GGGAGUUCUACAGUCCGACGAUCAAACAGAUCUUAAAAUACCAAAAUGUCACUGGCUUCAGUAAUGUGAAUAUCAACAGGCAUAGUUUUAUAGUGACAUCUUCAGAUCGAGGUAAACCUUCCUUAAUUAGUGAGACAACAGUUCAACAGAGGAUUGAGCAUCA
# B6: chrX:72139229:72139330:+|CDS|ENSG00000204131|unk|FALSE|unique (ssRNA)
# RNA: GGGAGUUCUACAGUCCGACGAUCUCCCUUAGUGCCCAGCAAGAGGCCCAGCACAGAAGGCAGAGGUCCAAGAGUAUCUCACUUAGGAAGGCCAAAAAGAAGCCUUCCCCACCCACACGCAGUGUCUCACUGGUCAAAGAUGAGCAACAGAGGAUUGAGCAUCA
# B7: chrX:48915045:48915146:-|CDS|ENSG00000102096|unk|FALSE|unique (ssRNA)
# RNA: GGGAGUUCUACAGUCCGACGAUCCCAGCACUGCCAUUCCCGUGGAGUUGUCCAUCGUGACAUCAAGGAUGAGAACAUCCUGAUAGACCUACGCCGUGGCUGUGCCAAACUCAUUGAUUUUGGUUCUGGUGCCCUGCUUCAUGACAACAGAGGAUUGAGCAUCA
# B8: chr6:98868534:98874277:-|three_prime_utr|ENSG00000112234|control|control|control (ssRNA)
# RNA: GGGAGUUCUACAGUCCGACGAUCAUUAAAAUUAAUGUGCUUUGUUGGGGUUUAAUUUUGGGAUUGGUUUUGGGUUUUGUUUUUAGUUGUUUUAAUGGUAAGAAUUAAGACAUUUGUAGAUUUUAAAGAAAAAUAUGAAAUUGUCAACAGAGGAUUGAGCAUCA
# B9: ENSG00000071553:stop:overlap|stop_codon|ENSG00000071553|stop_codon|NA|stop_codon (ssRNA)
# RNA: GGGAGUUCUACAGUCCGACGAUCCCCCCCAUGACACUGACGCCCAUUCCCCAAGGGAAGCUUCAGUGACCUUGUCCCAACUGUAGGGAGGUGUGGGUCGUCUCAUGGGAAGGCCUGUAGUAAACGCUUCAGUGGGCAUGGCGACAACAGAGGAUUGAGCAUCA
# B10: chr19:7961171:7961272:-|3pUTR|ENSG00000066044|msi1|total|mutant (ssRNA)
# RNA: GGGAGUUCUACAGUCCGACGAUCGGCGGGAUUCCCGCUUCUGAAACUCCCCCUGGAGUCUCACUCCCACACAUGCCCACCGCCCGCAUUCAACAGAGAACUCUGUCUUAAGCUUCAACUGUGAAAAUGAUGACGGGCUUGCCGCAACAGAGGAUUGAGCAUCA
# B11: ENSG00000198589:be:win_5951|CDS|ENSG00000198589|bound_else_gene|NA|bound_elsewhere_windowed (ssRNA)
# RNA: GGGAGUUCUACAGUCCGACGAUCACUGGGAAGAUGACUUGCGGCGCCGGCGACGAUUUGUGCGUAACCCUCUAGGAUCGACACAUCCUGAAGCGACACUAAAAACAGCCGUGGAACAUGCCACAGAUGAAGAUAUCCUUGCUACAACAGAGGAUUGAGCAUCA
# B12: chr17:44678858:44679043:-|CDS|ENSG00000180329|control|control|control (ssRNA)
# RNA: GGGAGUUCUACAGUCCGACGAUCUCGGGAUGAAUCCCAAAGGAAGAAGGAACAGGACAAGCUGCAGAGGGAGAGAGACAAACUAGCCAAGCAGGAGCGCAAGGAAAAGGAAAAAAAAAGGACACAGAGAGGGGAGCGAAAGCGCAACAGAGGAUUGAGCAUCA
# B13: chr1:113797602:113797710:-|CDS|ENSG00000081019|unk|total|mutant (ssRNA)
# RNA: GGGAGUUCUACAGUCCGACGAUCUUUAUGACUCACCAGGAACAUUCUAUUCGCCGAAAUUUCUUAAAAACAGGUACUAAAUUCCGCAACUUUAUUCAUGAGGAACACCAGUCCAAUGGUGGUGCUCUUGUCCUUCAUGCUUACCAACAGAGGAUUGAGCAUCA
# B14: chr11:214995:215097:+|3pUTR|ENSG00000177963|unk|total|mutant (ssRNA)
# RNA: GGGAGUUCUACAGUCCGACGAUCCCUCCUUCCUACUGGUUCCGACUACACUUACAACAAGGAAAAUGCCCCUCGUGUGACCACCGAUUGAGAUUUAUACCACAUACCACACACCGCCACAGAAACAUCAUCUUGAAAUAAAGACAACAGAGGAUUGAGCAUCA
# B15: chr2:96185838:96185916:-|3pUTR|ENSG00000084090|msi1_unk|FALSE|overlapping (ssRNA)
# RNA: GGGAGUUCUACAGUCCGACGAUCUGGGAGACUAAUCCUUUUAGAUAGUAGCUUUUUGAUGCUCAAAACAUCACAUUUAAAUUUAGUUUAAAAAUUUUUUAACUUUUGUGUCAAAUAGGAGUUGAGGAAUUGAGCAGGAUUCUACAACAGAGGAUUGAGCAUCA
# B16: chr19:22391518:22392981:-|CDS|ENSG00000197360|control|control|control (ssRNA)
# RNA: GGGAGUUCUACAGUCCGACGAUCCAUAAGAGAAUUCAUGCUGGAGAGAAAUUCUACAAAUGUGAAGUAUGUAGCAAAGCCUUUAGCCGGUUCUCACACCUUACUACACAUAAGAGAAUUCAUACUGGAGAGAAGCCCUACAAACAACAGAGGAUUGAGCAUCA
# B17: chr22:42060953:42061055:-|CDS|ENSG00000198951|unk|FALSE|unique (ssRNA)
# RNA: GGGAGUUCUACAGUCCGACGAUCCCAGGAAAAAUCUCUCAUCGAAGUGUACAUGCGGCCUCUGUCCAACAAGGCUAGCGCCUUAGUCUUCUUCAGCUGCAGGACCGAUAUGCCUUAUCGCUACCACUCCUCCCUUGGCCAGCUCAACAGAGGAUUGAGCAUCA
# B18: chr2:150470103:150470218:-|CDS|ENSG00000115963|unk|FALSE|unique (ssRNA)
# RNA: GGGAGUUCUACAGUCCGACGAUCAUGGCCAAACAGAUUGGAGCAGCUACUUAUAUCGAAUGCUCAGCUUUACAGUCGGAAAAUAGCGUCAGAGACAUUUUUCACGUUGCCACCUUGGCAUGUGUAAAUAAGACAAAUAAAAACCAACAGAGGAUUGAGCAUCA
# B19: chr8:74853834:74853946:+|3pUTR|ENSG00000137558|unk|FALSE|unique (ssRNA)
# RNA: GGGAGUUCUACAGUCCGACGAUCAAGUGCUUUUUUUUUUCUGAAUUAAUUAGGUAUUGGUAAAAUAUAUUUUUAAAUUUAGUUAGCUUUAUAAACACAAUUAGAAUUACAAUUAAUUAACAGAGGUAUAAUUGUCUCACUUUCCAACAGAGGAUUGAGCAUCA
# B20: ENSG00000186472:stop:overlap|stop_codon|ENSG00000186472|stop_codon|NA|stop_codon (ssRNA)
# RNA: GGGAGUUCUACAGUCCGACGAUCUUUCUUGUAAAUGGAAAUUUUAUCAUGUGUAUAGAUUCUGUAGCAUGCUUUUCUUUAUUUAGUUUUACUUUAUUCCUUUAUUGUUCUGUUUCUUGAUUGUUUGCUUGAUUUGUUUGGUGUCAACAGAGGAUUGAGCAUCA
# B21: chr10:97759570:97759671:+|3pUTR|ENSG00000155256|msi1|FALSE|unique (ssRNA)
# RNA: GGGAGUUCUACAGUCCGACGAUCGACUGAGCGAGUGGACUUAGGGCUGGGCAGGCAGUAGCCACCAGAGGGCAGCAGCGAACUAGGCCAGGCCUGACUGGGGUCUGAAGAUCAGGGUCAGUGUGGCUGUGCCUGGGAAUUCCACAACAGAGGAUUGAGCAUCA
# B22: chr19:57572896:57572997:-|CDS|ENSG00000083817|unk|FALSE|unique (ssRNA)
# RNA: GGGAGUUCUACAGUCCGACGAUCCAUCGGAGAAUCCACACUGGAGAAAGGCCUUAUGUGUGUGGUCAGUGUGGGAAAUCAUUUAGCCAAAGAGCCACCCUCAUUAAACAUCACAGAGUUCACACUGGAGAAAGGCCUUACGAGCAACAGAGGAUUGAGCAUCA
# Target: MSI1 full-length (mouse, UniProt Q61474 1-362)
# Sequence of UniProt Q61474 (Q61474 whole entry): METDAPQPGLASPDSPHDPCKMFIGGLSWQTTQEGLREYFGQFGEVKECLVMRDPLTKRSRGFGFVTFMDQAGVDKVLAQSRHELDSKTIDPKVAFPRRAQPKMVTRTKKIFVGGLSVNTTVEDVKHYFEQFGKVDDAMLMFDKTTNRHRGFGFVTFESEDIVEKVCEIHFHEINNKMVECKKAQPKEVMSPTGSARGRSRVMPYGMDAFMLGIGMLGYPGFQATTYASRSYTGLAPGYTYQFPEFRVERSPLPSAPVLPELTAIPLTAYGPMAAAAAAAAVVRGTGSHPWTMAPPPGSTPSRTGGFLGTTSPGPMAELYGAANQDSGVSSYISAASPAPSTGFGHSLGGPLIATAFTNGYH
# Assay: nsRBNS (natural sequence RNA bind-n-seq); RBNS binding buffer (assumed for nsRBNS): 25 mM Tris pH 7.5, 150 mM KCl, 3 mM MgCl2, 0.01% Triton X-100, 500 ug/ml BSA, 20 U/ml SUPERase-In, 4 C; UNK is unkempt and MSI1 is Musashi-1; names of the RNAs are library labels; protein concentration not given here; high values mean tight binding
row,Binder,binding signal
1,B1,0.93 enrichment R
2,B2,0.439 enrichment R
3,B3,0.756 enrichment R
4,B4,0.241 enrichment R
5,B5,9.05 enrichment R
6,B6,0.592 enrichment R
7,B7,0.365 enrichment R
8,B8,21.9 enrichment R
9,B9,0.518 enrichment R
10,B10,0.295 enrichment R
11,B11,0.307 enrichment R
12,B12,0.589 enrichment R
13,B13,0.252 enrichment R
14,B14,0.839 enrichment R
15,B15,8.29 enrichment R
16,B16,0.435 enrichment R
17,B17,0.623 enrichment R
18,B18,0.499 enrichment R
19,B19,47.1 enrichment R
20,B20,0.35 enrichment R
21,B21,0.819 enrichment R
22,B22,0.52 enrichment R
